In a compilation of properties of binary mixtures (doi:10.1007/s10953-014-0137-8):
The densities may have been worked out from excess volumes.

Assay: xn = mol fraction of the nth substance listed
Details: 101 kPa

CCCC[n+]1ccn(C)c1.F[B-](F)(F)F + O
mass density [kg/m3]
Details | 293.15 K | 298.15 K | 303.15 K | 308.15 K | 313.15 K | 318.15 K | 323.15 K
x2 = 0.0964 | – | – | – | 1186.7 | 1183.1 | – | 1176
x2 = 0.2639 | 1192.4 | – | 1185.1 | 1181.5 | 1177.9 | – | 1170.7
x2 = 0.3901 | 1186.7 | – | 1179.4 | 1175.8 | 1172.1 | – | 1164.9
x2 = 0.5121 | 1179.2 | 1175.6 | 1171.7 | 1168.1 | 1164.4 | 1160.8 | 1157
x2 = 0.6369 | 1168 | 1164.2 | 1160.5 | – | 1153.1 | – | 1145.6
x2 = 0.7002 | 1159.9 | – | 1152.4 | – | 1144.9 | 1141.2 | 1137.4
x2 = 0.7456 | 1152.5 | 1148.7 | 1145 | – | 1137.5 | 1133.7 | 1130
x2 = 0.7866 | 1144.7 | 1139.4 | 1137.5 | 1133.6 | 1129.8 | 1126 | 1122.4
x2 = 0.8493 | – | – | 1120.7 | 1117 | – | 1109.6 | –
x2 = 0.9 | 1106.3 | – | – | 1096.1 | – | – | –
x2 = 0.9252 | 1090.4 | 1087.3 | – | 1080.9 | 1077.6 | 1074.2 | 1070.8
x2 = 0.9496 | 1070.6 | – | 1065 | 1062 | 1059 | 1055.8 | –
x2 = 0.9744 | 1043.1 | 1040.9 | 1038.6 | 1036.1 | – | 1030.8 | –
